Results: a collection of fitness landscapes (doi:10.1016/j.celrep.2020.107928)
The full ranking holds about 81,000 sequences; the median of “one-hybrid fitness for binding NBS DNA” is about -0.1, and the highest 2% start at about 0.36. Some of the results follow.

B1: Caulobacter ParB omega fusion; a variant is named by its letters at X, in order, B8GW30 (parent)
chain: MESVVVGEPGMSEGRRGLGRGLSALLGEVDAAPAQAPGEQLGGSREAPIEILQRNPDQPRRTFREEDLEDLSNSIREKGVLQPILVRPSPDTAGEYQIVAGERAWRAAQRAGLKTVPIMVRELDDLAVLEIGIIENVQRADLNVLEEALSYKVLMEKFERTQENIAQTIGKSXSHVANXMRLLXLPDEVQSYLVSGELTAXHARAIAAAADPVALAKQIIEGGLSVRETEALARKAPNLSAGKSKGGRPPRVKDTDTQALESDLSSVLGLDVSIDHRGSTGTLTITYATLEQLDDLCNRLTRGI

Variants of: B1
Test: one-hybrid fitness for binding NBS DNA (the Noc-binding site; scaled: cognate 1, non-cognate 0); higher = stronger binding
Conditions: with NBS DNA site
Method in brief: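 Selection: bacterial one-hybrid in E. coli USO, HIS3 reporter with the site 19 bp from the promoter, 48 hours at 37°C on M9-minus-histidine plus 0.1 mM IPTG and 5 mM 3-AT. Libraries were Caulobacter ParB with four randomised specificity codons, sequenced on Illumina before and after selection. Fitness is the rescaled log change in variant-to-wild-type read ratio, anchored to the cognate and non-cognate sites.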

Row | Variant | one-hybrid fitness for binding NBS DNA
1 | AQFA | ≤ 0.2
2 | TGCS | ≤ 0.2
3 | DASV | ≤ 0.2
4 | IDQY | ≤ 0.2
5 | IVTG | ≤ 0.2
6 | LEWW | ≤ 0.2
7 | PHEL | ≤ 0.2
8 | YVGA | ≤ 0.2
9 | CRHN | ≤ 0.2
10 | SQLM | ≤ 0.2
11 | YKDH | 0.692
12 | LCAK | ≤ 0.2
13 | HGWF | ≤ 0.2
14 | DAHN | ≤ 0.2
15 | DHRK | ≤ 0.2
16 | CPYC | ≤ 0.2
17 | VASD | ≤ 0.2
18 | RPEW | ≤ 0.2
19 | EDIG | ≤ 0.2
20 | NIMG | ≤ 0.2
21 | FSVS | ≤ 0.2
22 | YHPL | ≤ 0.2
23 | YPYF | ≤ 0.2
24 | RAWI | ≤ 0.2
25 | LASE | ≤ 0.2
26 | GPRS | ≤ 0.2

Row | Variant | one-hybrid fitness for binding NBS DNA
27 | PPTL | ≤ 0.2
28 | SHKL | ≤ 0.2
29 | KFKS | ≤ 0.2
30 | PMYW | ≤ 0.2
31 | WQYS | ≤ 0.2
32 | EVIG | ≤ 0.2
33 | EILV | ≤ 0.2
34 | ERSY | ≤ 0.2
35 | QVWG | ≤ 0.2
36 | KLSR | ≤ 0.2
37 | NQSI | ≤ 0.2
38 | VLKG | ≤ 0.2
39 | HCIL | ≤ 0.2
40 | WRSA | ≤ 0.2
41 | PLGE | ≤ 0.2
42 | KRNC | ≤ 0.2
43 | RTSR | 0.576
44 | LFPA | ≤ 0.2
45 | PMHS | ≤ 0.2
46 | ITER | ≤ 0.2
47 | RCDC | ≤ 0.2
48 | MIKR | ≤ 0.2
49 | QNSH | ≤ 0.2
50 | QTDH | 0.335
51 | ITCG | ≤ 0.2
52 | RIYP | ≤ 0.2

Row | Variant | one-hybrid fitness for binding NBS DNA
53 | YMNL | ≤ 0.2
54 | CAGE | ≤ 0.2
55 | GCPV | ≤ 0.2
56 | TVPV | ≤ 0.2
57 | LPCK | ≤ 0.2
58 | DCMG | ≤ 0.2
59 | YYNR | ≤ 0.2
60 | VQIL | ≤ 0.2
61 | QNIA | ≤ 0.2
62 | TSEE | ≤ 0.2
63 | SSEL | ≤ 0.2
64 | ESMR | ≤ 0.2
65 | HWWR | ≤ 0.2
66 | GALT | ≤ 0.2
67 | PDTL | ≤ 0.2
68 | DIQQ | ≤ 0.2
69 | PLMM | ≤ 0.2
70 | GMVS | ≤ 0.2
71 | QGLM | ≤ 0.2
72 | MYNR | ≤ 0.2
73 | HTQY | ≤ 0.2
74 | WSWR | ≤ 0.2
75 | GQEK | ≤ 0.2
76 | NNDS | ≤ 0.2
77 | QHIS | 0.258
78 | LQPA | ≤ 0.2

Row | Variant | one-hybrid fitness for binding NBS DNA
79 | APLR | ≤ 0.2
80 | TCES | ≤ 0.2
81 | LHLT | ≤ 0.2
82 | MMMY | ≤ 0.2
83 | VPNL | ≤ 0.2
84 | IKQR | ≤ 0.2
85 | NRTQ | ≤ 0.2
86 | VAFT | ≤ 0.2
87 | VDMV | ≤ 0.2
88 | APAL | ≤ 0.2
89 | HVNE | ≤ 0.2
90 | NTMS | ≤ 0.2
91 | QQTY | ≤ 0.2
92 | AACS | ≤ 0.2
93 | DNNT | ≤ 0.2
94 | YHNT | ≤ 0.2
95 | RHAF | ≤ 0.2
96 | STYR | ≤ 0.2
97 | GTKS | ≤ 0.2
98 | CNGF | ≤ 0.2
99 | SDHM | ≤ 0.2
100 | GWIS | ≤ 0.2
101 | TEYL | ≤ 0.2
102 | GLRS | ≤ 0.2
103 | PATW | ≤ 0.2
104 | MDTR | ≤ 0.2

Row | Variant | one-hybrid fitness for binding NBS DNA
105 | GHRC | ≤ 0.2
106 | YGCA | ≤ 0.2
107 | RNLE | ≤ 0.2
108 | QRKY | 0.699
109 | DKES | ≤ 0.2
110 | ITMD | ≤ 0.2
111 | RSLG | ≤ 0.2
112 | QRCC | 0.389
113 | PISI | ≤ 0.2
114 | AASA | ≤ 0.2
115 | IILP | ≤ 0.2
116 | EVTN | ≤ 0.2
117 | RKEE | ≤ 0.2
118 | DCGG | ≤ 0.2
119 | RSST | 0.426
120 | MTYV | ≤ 0.2
121 | LMRT | ≤ 0.2
122 | RNES | ≤ 0.2
123 | AAFL | ≤ 0.2
124 | VVPR | ≤ 0.2
125 | NTVP | ≤ 0.2
126 | GPLL | ≤ 0.2
127 | PWIG | ≤ 0.2
128 | LKWG | ≤ 0.2
129 | QESS | ≤ 0.2
130 | LVRK | ≤ 0.2

Row | Variant | one-hybrid fitness for binding NBS DNA
131 | DSVW | ≤ 0.2
132 | MQTS | ≤ 0.2
133 | YANT | ≤ 0.2
134 | IILS | ≤ 0.2
135 | NPRT | ≤ 0.2
136 | AVLR | ≤ 0.2
137 | PGYI | ≤ 0.2
138 | DITM | ≤ 0.2
139 | SLTH | ≤ 0.2
140 | WMVG | ≤ 0.2
141 | YHKR | ≤ 0.2
142 | SEEG | ≤ 0.2
143 | CTTI | ≤ 0.2
144 | PAPN | ≤ 0.2
145 | ARCH | ≤ 0.2
146 | GPKV | ≤ 0.2
147 | VWAN | ≤ 0.2
148 | MLGL | ≤ 0.2
149 | VPLE | ≤ 0.2
150 | NFDM | ≤ 0.2
151 | IYIT | ≤ 0.2
152 | PRQG | ≤ 0.2
153 | ASWG | ≤ 0.2
